# Measurements from the BET-seq Pho4 binding data (Le et al. 2018).
# Some of the results follow. Values were computed here from the reads of four pooled replicates and scatter widely.
# Target: T1, Pho4 (S. cerevisiae) (UniProt P07270)
# T1 sequence: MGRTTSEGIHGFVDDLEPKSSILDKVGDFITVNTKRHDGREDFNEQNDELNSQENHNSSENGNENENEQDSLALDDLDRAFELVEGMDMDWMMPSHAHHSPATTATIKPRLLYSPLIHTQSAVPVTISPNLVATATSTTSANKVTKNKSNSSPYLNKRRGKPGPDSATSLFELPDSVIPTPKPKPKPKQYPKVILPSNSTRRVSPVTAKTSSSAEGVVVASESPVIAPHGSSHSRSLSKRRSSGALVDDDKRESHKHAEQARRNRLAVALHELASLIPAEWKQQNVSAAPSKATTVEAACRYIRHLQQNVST
# Test: relative binding free energy (BET-seq); higher = weaker binding
# Conditions: reference: library average
row,Sequence,relative binding free energy
1,TTGTACACGTGTGGGC,0.12 kcal/mol
2,TATCTCACGTGGGGTT,0.14 kcal/mol
3,TGAAGCACGTGCTGGT,-0.2 kcal/mol
4,ACGGGCACGTGTTGAG,-0.11 kcal/mol
5,GTGGTCACGTGTCGGA,0.31 kcal/mol
6,AGAGGCACGTGGTTGT,-0.17 kcal/mol
7,GTCAGCACGTGTGGGA,0.03 kcal/mol
8,TTAGGCACGTGTATAA,-0.1 kcal/mol
9,GGTTTCACGTGTACTT,0.28 kcal/mol
10,GTGGTCACGTGGTTAT,0.15 kcal/mol
11,GTGCGCACGTGTACTG,0.02 kcal/mol
12,TTGAACACGTGGGTTG,0.08 kcal/mol
13,TGCGACACGTGGGTTG,-0.15 kcal/mol
14,TAAATCACGTGGCAGG,0.03 kcal/mol
15,TGTTGCACGTGGTACC,-0.06 kcal/mol
16,ATTATCACGTGAAGTA,0.3 kcal/mol
17,TTAATCACGTGATAAT,0.24 kcal/mol
18,TTTTACACGTGAATTA,0.31 kcal/mol
19,TTTTGCACGTGCATCG,0.02 kcal/mol

row,Sequence,relative binding free energy
1,TGGTGCACGTGCGGCA,-0.03 kcal/mol
2,GCTGTCACGTGTTATG,0.05 kcal/mol
3,ATCTTCACGTGGGGGC,0.05 kcal/mol
4,GTATTCACGTGTCTTG,0.31 kcal/mol
5,AAGGTCACGTGATAGG,0.3 kcal/mol
6,CTTAGCACGTGTGAGT,-0.06 kcal/mol
7,CGGGCCACGTGCTGGG,-0.14 kcal/mol
8,ACATGCACGTGGTTGG,-0.25 kcal/mol
9,TAGCACACGTGAGGTG,0.26 kcal/mol
10,GTTTGCACGTGGAAGT,0.06 kcal/mol
11,AAATACACGTGGTCGG,0.16 kcal/mol
12,CTTTTCACGTGGGGCA,0.13 kcal/mol
13,GATGTCACGTGGTAGC,0.21 kcal/mol
14,TTTTCCACGTGTTTGC,0.04 kcal/mol
15,AAGGCCACGTGTGTAG,0.06 kcal/mol
16,GGCGGCACGTGGGGTG,-0.18 kcal/mol
17,TTATGCACGTGATCAT,0 kcal/mol
18,ATAAACACGTGGGTGT,-0.17 kcal/mol
19,TGTGACACGTGGAAGT,-0.04 kcal/mol

row,Sequence,relative binding free energy
1,AATAGCACGTGGTTGC,-0.14 kcal/mol
2,GTGCCCACGTGGTGTA,-0.09 kcal/mol
3,TTGAACACGTGGGTCT,-0.06 kcal/mol
4,TGGGTCACGTGTAATT,0.36 kcal/mol
5,TGCTGCACGTGCGTAG,-0.06 kcal/mol
6,CGTTTCACGTGGAGCA,0.4 kcal/mol
7,TGGATCACGTGGGAGC,0.04 kcal/mol
8,GGTACCACGTGTTGGT,0.05 kcal/mol
9,AAAAGCACGTGTGAGT,-0.01 kcal/mol
10,TGTGCCACGTGGTATT,-0.14 kcal/mol
11,CAAAGCACGTGTGTAG,0.07 kcal/mol
12,TGATACACGTGTTCGG,-0.1 kcal/mol
13,TTTGTCACGTGTATAT,0.17 kcal/mol
14,TTCCTCACGTGGGTTA,0.06 kcal/mol
15,ATAGTCACGTGTGTGA,0.01 kcal/mol
16,ATATTCACGTGGTCAG,0.1 kcal/mol
17,TTAGGCACGTGCGTCG,-0.17 kcal/mol
18,CGGCGCACGTGTGAGT,-0.09 kcal/mol
19,TCGGGCACGTGTGTAG,0.05 kcal/mol
